No constants are given. Whether binding was seen depends on the method and setting. For some of these results: In cells and extracts the contact can be indirect. Some binding calls cover weakened binding; strength is not graded here.
What was measured:
Cep3 (S. cerevisiae) [1] = target: Cep3 (S. cerevisiae) (UniProt P40969); experiment: cryo-EM structure; single-particle cryo-EM of the purified core complex at 0.1 mg/ml, 3.6 Å overall; no lambda-phosphatase treatment; both purified
Cep3 (S. cerevisiae) [2] = target: Cep3 (S. cerevisiae) (UniProt P40969); experiment: SEC-MALS; 200 μg of core complex on Superose 6 Increase 10/300 coupled to a Wyatt Dawn 8+ MALS system; both purified
[3] = target: Cep3, triple HA-tagged with C-terminal double-Strep tag (S. cerevisiae) (UniProt P40969); experiment: pull-down; all four CBF3 subunits overexpressed in S. cerevisiae, all but Ctf13 HA-tagged; lysates on a StrepTactin column (Strep tag on Cep3), eluted with biotin; SDS-PAGE/Coomassie and anti-HA Western blot
Ctf13 (S. cerevisiae) = Ctf13 (S. cerevisiae) (UniProt P35203); experiment: cryo-EM structure; single-particle cryo-EM of the purified core complex at 0.1 mg/ml, 3.6 Å overall; no lambda-phosphatase treatment; both purified
Cep3 (S. cerevisiae) [4] = target: Cep3 (S. cerevisiae) (UniProt P40969); experiment: co-purification (Strep affinity, heparin, anion exchange, SEC); mutant core complexes co-expressed in S. cerevisiae and purified as complexes with the same procedure as the wild type; Skp1Δ core also seen by negative stain EM; both purified

Protein sequences, listed by entry. Tags and fused reporters are not part of them. Lines headed by an entry give the natural chain unless they say otherwise; changes in a name come on top. Chains listed by the source or under a name are the forms on record and can include a tag or linker.
UniProt P40969: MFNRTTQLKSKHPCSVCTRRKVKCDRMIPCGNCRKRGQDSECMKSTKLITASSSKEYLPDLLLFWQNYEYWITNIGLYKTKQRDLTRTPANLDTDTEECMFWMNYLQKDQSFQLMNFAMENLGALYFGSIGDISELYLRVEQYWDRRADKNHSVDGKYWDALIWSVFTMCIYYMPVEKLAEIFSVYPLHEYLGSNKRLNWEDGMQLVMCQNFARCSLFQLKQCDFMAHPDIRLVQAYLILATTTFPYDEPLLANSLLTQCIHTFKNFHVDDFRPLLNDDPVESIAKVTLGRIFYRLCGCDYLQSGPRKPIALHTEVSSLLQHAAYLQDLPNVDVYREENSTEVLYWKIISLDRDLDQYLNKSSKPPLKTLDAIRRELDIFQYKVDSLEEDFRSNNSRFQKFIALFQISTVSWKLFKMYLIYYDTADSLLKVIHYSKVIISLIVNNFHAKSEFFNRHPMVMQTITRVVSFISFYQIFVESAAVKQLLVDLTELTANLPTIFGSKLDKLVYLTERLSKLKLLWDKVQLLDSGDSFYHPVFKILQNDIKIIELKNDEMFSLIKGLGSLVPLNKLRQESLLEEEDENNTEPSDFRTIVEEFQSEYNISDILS
UniProt P35203: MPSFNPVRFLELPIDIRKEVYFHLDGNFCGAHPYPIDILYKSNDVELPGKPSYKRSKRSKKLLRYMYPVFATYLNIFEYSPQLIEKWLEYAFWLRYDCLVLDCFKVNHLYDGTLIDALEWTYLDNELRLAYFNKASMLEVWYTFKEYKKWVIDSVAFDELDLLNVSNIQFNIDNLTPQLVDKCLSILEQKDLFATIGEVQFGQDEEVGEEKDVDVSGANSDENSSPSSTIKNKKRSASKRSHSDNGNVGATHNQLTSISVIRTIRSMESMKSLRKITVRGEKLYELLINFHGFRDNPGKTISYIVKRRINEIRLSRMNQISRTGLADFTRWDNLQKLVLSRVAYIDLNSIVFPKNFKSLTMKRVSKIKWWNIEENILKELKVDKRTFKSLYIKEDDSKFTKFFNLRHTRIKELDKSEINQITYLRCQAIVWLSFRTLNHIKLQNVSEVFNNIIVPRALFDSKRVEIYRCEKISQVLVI
UniProt P52286: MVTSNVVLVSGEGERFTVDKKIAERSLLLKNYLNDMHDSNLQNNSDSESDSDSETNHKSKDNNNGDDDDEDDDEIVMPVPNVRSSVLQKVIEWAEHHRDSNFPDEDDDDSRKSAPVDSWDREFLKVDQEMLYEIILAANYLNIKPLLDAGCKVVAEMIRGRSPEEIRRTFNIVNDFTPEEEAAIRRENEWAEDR
Skp1Δ (P52286, form named): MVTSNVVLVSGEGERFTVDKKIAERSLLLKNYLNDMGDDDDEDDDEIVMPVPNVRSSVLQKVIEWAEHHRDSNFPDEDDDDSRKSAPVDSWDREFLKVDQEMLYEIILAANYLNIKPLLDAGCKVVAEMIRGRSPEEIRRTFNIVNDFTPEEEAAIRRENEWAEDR

Substance	binding (Cep3 (S. cerevisiae) [1])	binding (Cep3 (S. cerevisiae) [2])	binding [3]	further results
Ctf13 (from UniProt P35203 1-478)	binds	binds	binds	
Skp1 (from UniProt P52286 1-194)	binds	binds		binding (Ctf13 (S. cerevisiae)): binds
Skp1Δ (from UniProt P52286 1-194)				binding (Cep3 (S. cerevisiae) [4]): binds
endogenous Skp1 (from UniProt P52286 1-194)			binds	
mutant HA-tagged Skp1 (N139K, Y140K) (from UniProt P52286 1-194)			no binding	
wild-type HA-tagged Skp1 (from UniProt P52286 1-194)			binds	

From PMC5771398, “Structural basis for assembly of the CBF3 kinetochore complex” (The EMBO Journal, 2017)
